# Experimental data reported in PubChem BioAssay AID588342 (National Center for Advancing Translational Sciences (NCATS), 2011).
# In all, about 360,000 compounds went through this assay and about 25,000 (6.9%) were called active. Inconclusive results, whose numbers are uncertain, are shown with a selection of clear calls. The call rests on the fitted dose curve; in most records, active means well fitted inhibition curve with a large enough effect; inconclusive means small, poorly fitted or top-dose-only effect; inactive means flat fitted curve, though single readings scatter. Potencies beside an inconclusive call are fits to weak or partial responses and may not hold up.
# Target: Luciferin 4-monooxygenase (Photinus pyralis) (UniProt P08659)
# Chain of UniProt P08659 (P08659 whole entry, looked up): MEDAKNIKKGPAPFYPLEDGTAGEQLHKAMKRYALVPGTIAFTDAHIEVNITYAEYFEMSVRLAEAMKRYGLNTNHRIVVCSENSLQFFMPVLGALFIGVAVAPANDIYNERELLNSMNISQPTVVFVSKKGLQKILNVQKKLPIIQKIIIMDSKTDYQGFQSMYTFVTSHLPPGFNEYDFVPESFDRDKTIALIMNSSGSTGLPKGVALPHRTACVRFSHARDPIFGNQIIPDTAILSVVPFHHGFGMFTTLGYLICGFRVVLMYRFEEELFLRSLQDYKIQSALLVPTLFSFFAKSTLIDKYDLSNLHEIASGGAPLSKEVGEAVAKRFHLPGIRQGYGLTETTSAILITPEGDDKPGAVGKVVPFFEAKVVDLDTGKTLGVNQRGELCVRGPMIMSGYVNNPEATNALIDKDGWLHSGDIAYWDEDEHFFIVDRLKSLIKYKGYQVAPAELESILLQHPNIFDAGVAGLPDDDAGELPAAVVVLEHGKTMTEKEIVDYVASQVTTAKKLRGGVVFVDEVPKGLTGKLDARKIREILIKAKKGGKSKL
# Assay: qHTS profiling assay for firefly luciferase inhibitor/activator using purifed enzyme and Km concentrations of substrates (counterscreen for miR-21 project); further: nearly all actives have a fitted effect of over 55% in size;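 on activity change, negative = inhibition: plate controls were vehicle for no effect and reference inhibitor for full effect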
# Conditions: purified FLuc, luminescence inhibition; series mostly up to 57.5 µM; activity change, negative = inhibition: at the top concentration
# Outline: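 Purified P. pyralis luciferase, 10 nM final, with Km-level 10 uM D-luciferin and 10 uM ATP in 50 mM Tris acetate pH 7.5, 10 mM Mg acetate, 0.01% Tween-20, 0.05% BSA; 6-point qHTS titration about 60 µM downward; luminescence read.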
# Potency means the concentration at half of the fitted maximal effect; tags describe the fitted curve by direction and shape.
SMILES,Potency,"activity change, negative = inhibition"
COc1cc(/C=N/NC(=O)c2ccccc2)ccc1OS(=O)(=O)c1ccccc1,"inconclusive: 23.9 µM [inhibitor, single point]",
Cc1csc(NC(=O)CCn2c(=O)sc3ccccc32)n1,"inconclusive: 26.9 µM [inhibitor, single point]",
C#CCNC(=O)C1=C[C@@H](C2CCCCC2)C[C@@H](OCCCCO)O1,"inconclusive: 26.9 µM [inhibitor, partial curve, poor fit]",
COc1ccccc1/C=C/C=N/NC(=O)c1ccc2nc[nH]c2c1,active: 16.9 µM,
COc1ccccc1OCCNC(=O)c1cccs1,"inconclusive: 37.9 µM [inhibitor, partial curve, poor fit]",
Cc1ccc(/C=C/c2onc(C)c2S(=O)(=O)N2CCC(C(=O)N3CCOc4ccc(C)cc43)CC2)cc1,,inactive: -2.51%
CSc1ccc(C2CC(=O)Oc3c2c(=O)n(C)c2ccccc32)cc1 (centres undefined),"inconclusive: 12 µM [inhibitor, partial curve]",
COc1ccccc1C(=O)COC(=O)c1ccc(Cl)nc1,"inconclusive: 19 µM [inhibitor, partial curve, poor fit]",
Cn1cnnc1SCC(=O)Nc1ccc2nc(SCc3ccccc3)sc2c1,active: 10.7 µM,
Cc1ccc(/C=C2\SC(N3CCCC3)=NC2=O)cc1,"inconclusive: 13.5 µM [inhibitor, partial curve]",
CN(C)c1ncnc2sc(-c3ccccc3)cc12,active: 15.1 µM,
S=C1Cc2ccccc2N1,"inconclusive: 37.9 µM [inhibitor, partial curve, poor fit]",
O=C(Nc1cccnc1Cl)c1cc2c(s1)-c1ccccc1OC2,"inconclusive: 4.26 µM [inhibitor, full curve]",
COc1ccc(CNC(=O)c2ccc3nc(CCc4ccccc4)oc3c2)cc1,,inactive: 1.52%
O=C(N[C@@H](Cc1ccccc1)C(=O)O)c1ccc(C(F)(F)F)cc1,"inconclusive: 16.9 µM [inhibitor, partial curve]",
C=CCOc1ccc(-c2n[nH]c(=S)o2)cc1,active: 23.9 µM,
Cc1ccc(C2Nc3cc(C)c(C)cc3-n3c(-c4ccccc4)c4c(=O)n(C)c(=O)n(C)c4c32)o1 (centres undefined),,inactive: -11%
O=C(Nc1nnc(-c2ccc(Cl)cc2)o1)c1ccccc1Br,"inconclusive: 23.9 µM [inhibitor, single point]",
CC(C)(C)OC(=O)N1CCC[C@H]1c1nnc(SCC(=O)Nc2cccc(Cl)c2)o1,"inconclusive: 33.8 µM [inhibitor, single point]",
Cc1[nH]n2c(=O)cc(-c3ccc(Cl)cc3)nc2c1-c1ccccc1,"inconclusive: 21.3 µM [inhibitor, partial curve]",
CC1=CC(=Nc2c(C)n(C)n(-c3ccccc3)c2=O)C=C(C)C1=O,"inconclusive: 21.3 µM [inhibitor, single point]",
Cc1c(C(=O)OCC(=O)N2CCC(C)CC2)oc2ccccc12,"inconclusive: 37.9 µM [inhibitor, partial curve, poor fit]",
COc1ccc(C2=NN(C(=O)c3ccccc3C(=O)O)C(c3ccccc3O)C2)cc1 (centres undefined),"inconclusive: 16.9 µM [inhibitor, partial curve, poor fit]",

SMILES,Potency,"activity change, negative = inhibition"
Cc1nn2c(-c3ccco3)ccnc2c1-c1ccc(Br)cc1,active: 9.53 µM,
S=c1nc(COc2ccccc2)[nH]c2ccccc12,active: 23.9 µM,
COc1cc(CCNC(=O)c2ccc3c(c2)c(C)c(C)n3Cc2cccc(C)c2)cc(OC)c1OC,,inactive: -11.6%
CC1CCN(c2ccc(NC(=O)C3CCCN3S(=O)(=O)c3ccc(F)cc3)cc2)CC1 (centres undefined),"inconclusive: 23.9 µM [inhibitor, partial curve, poor fit]",
Nc1c(-c2ccccc2)c(CSc2nc3ccccc3[nH]2)nn1-c1cccc(C(=O)O)c1,"inconclusive: 21.3 µM [inhibitor, partial curve, poor fit]",
CCOc1ccc2nc(-c3ccc(OC)c(OC)c3)cc(C(=O)O)c2c1,"inconclusive: 37.9 µM [inhibitor, partial curve, poor fit]",
CCOCC(=O)Nc1cccc(-c2nc3cccnc3s2)c1C,active: 16.9 µM,
Cc1ccccc1C(=O)O/N=C(\N)c1ccccc1,active: 0.169 µM,
CC1(C(=O)OCC(=O)Nc2nnc(-c3ccccc3)o2)CC1(Cl)Cl (centres undefined),"inconclusive: 30.1 µM [inhibitor, partial curve, poor fit]",
COc1ccc(CN2CCN(C(=O)c3cccs3)CC2)c(OC)c1OC,,inactive: -0.385%
CCCc1ccc(OCCNC(=O)c2ccco2)cc1,"inconclusive: 21.3 µM [inhibitor, single point]",
CN1C(=O)/C(=C\c2ccc(N(C)C)cc2)OC1=S,"inconclusive: 1.9 µM [inhibitor, full curve, poor fit]",
COc1ccc(/C=C2\SC(=O)N(CCNC(=O)C3=COCCO3)C2=O)cc1,"inconclusive: 2.69 µM [inhibitor, full curve]",
O=C(COC(=O)C1CCC1)Nc1ccc(OC(F)F)cc1,"inconclusive: 21.3 µM [inhibitor, single point]",
CC(C)(C)NC(=O)C(=O)NNC(=O)c1cccc([N+](=O)[O-])c1,"inconclusive: 19 µM [inhibitor, single point]",
O=C(CCn1ccc2cc(S(=O)(=O)N3CCCC3)ccc21)NCc1cccc(Cl)c1,,inactive: -7.4%
OC(COc1ccc2ccccc2c1Br)Cn1ccnc1 (centres undefined),"inconclusive: 23.9 µM [inhibitor, single point]",
O=C1N/C(=N\N=C\c2cccs2)SC1Cc1ccc(Cl)cc1 (centres undefined),,inactive: -7.15%
CCOC(=O)Cn1cnc2c(cnn2-c2ccc(OC)cc2)c1=O,"inconclusive: 26.9 µM [inhibitor, partial curve, poor fit]",
O=C(COc1ccccc1[N+](=O)[O-])Nc1cc(Cl)ccc1C(=O)O,"inconclusive: 37.9 µM [inhibitor, single point]",
CCN(CC(=O)N1CCN(Cc2ccccc2)CC1)S(=O)(=O)c1ccc(F)cc1,,inactive: 3.88%
COc1ccc2c(c1)Cc1sc(NC(=O)c3ccco3)nc1-2,active: 3.38 µM,
Cc1ccc(NC(=O)c2ccc(CNS(=O)(=O)c3ccc4c(c3)C(C)(C)C(=O)N4C)cc2)cc1C,"inconclusive: 13.5 µM [inhibitor, partial curve, poor fit]",

SMILES,Potency,"activity change, negative = inhibition"
O=C(NCc1ccccc1Cl)c1ccc(Cn2c(SCc3ccccc3)nc3cccnc32)cc1,active: 5.36 µM,
O=C(COc1cc(Cl)c(Cl)cc1Cl)Nc1cccc(O)c1,active: 1.07 µM,
CCc1ccccc1NC(=O)c1ccc2c(SCC(=O)O)c3c(nc2c1)CCC3,"inconclusive: 23.9 µM [inhibitor, partial curve]",
CSc1ccc(CCNC(=O)C(C)n2nc(C)c3sc4ccccc4c3c2=O)cc1 (centres undefined),active: 13.5 µM,
O=C(NCCCCc1ccccc1)Nc1ccc(F)cc1,"inconclusive: 37.9 µM [inhibitor, partial curve, poor fit]",
Cc1ocnc1C(=O)Nc1ccc(Cl)cc1,"inconclusive: 19 µM [inhibitor, partial curve]",
COc1ccc(-c2cc3n(n2)CCc2nc4ccccc4n2-3)cc1,"inconclusive: 10.7 µM [inhibitor, partial curve, poor fit]",
CS(=O)(=O)Nc1ccc(C2=NN(S(C)(=O)=O)C(c3ccccc3)C2)cc1 (centres undefined),,inactive: -17.9%
Cc1ccc(C(=O)/C=C/C(=O)O)cc1,"inconclusive: 30.1 µM [inhibitor, partial curve, poor fit]",
Cc1ccc(NS(=O)(=O)c2cc(NC(=O)c3cc4c(s3)CCCC4)ccc2C)c(C)c1,"inconclusive: 21.3 µM [inhibitor, partial curve]",
CCOC(=O)c1cccc2c1-c1ccccc1/C2=N/O,"inconclusive: 26.9 µM [inhibitor, partial curve, poor fit]",
CC1CCc2sc(C(=O)OCC(=O)NC(N)=O)cc2C1 (centres undefined),"inconclusive: 19 µM [inhibitor, partial curve, poor fit]",
O=C1c2ccccc2C(=O)N1CC1=NCCc2ccccc21,"inconclusive: 23.9 µM [inhibitor, single point]",
O=C(Nc1cccc2ccccc12)/C(=C/c1ccc([N+](=O)[O-])cc1)NC(=O)c1ccccc1,,inactive: -0.41%
O=C(NCCC1CCCC1)C1CCC(=O)N(CCCN2CCCC2=O)C1 (centres undefined),,inactive: -2.6%
Nc1nc(-c2ccccn2)nc(N)c1Cc1c(F)cccc1Cl,active: 26.9 µM,
Cc1ccc(NC(=O)c2cc(C)nc3ccccc23)c(Br)c1,"inconclusive: 21.3 µM [inhibitor, partial curve, poor fit]",
COc1ccccc1N1C(=O)C=C(Sc2nc(C)cc(C)n2)C1=O,"inconclusive: 8.49 µM [inhibitor, partial curve]",
Cc1c(C(=O)NC2CCCc3ccccc32)oc2ccccc12 (centres undefined),"inconclusive: 37.9 µM [inhibitor, partial curve, poor fit]",
COc1ccccc1C1=NN(C(=S)Nc2ccccc2)C(c2ccco2)C1 (centres undefined),"inconclusive: 13.5 µM [inhibitor, partial curve]",
Nc1c(C(=O)Nc2ccc3c(c2)OCCO3)nnn1CCc1ccccc1,active: 15.1 µM,
CCc1nc(SCC(=O)N2CCN(c3ccccc3)CC2)c2oc3ccccc3c2n1,"inconclusive: 23.9 µM [inhibitor, partial curve, poor fit]",
O=C(Nc1ccccc1)Nc1snnc1C(=O)Nc1cccc(O)c1,"inconclusive: 6.01 µM [inhibitor, full curve, poor fit]",
